# Measured values reported in PubChem BioAssay (NCATS).
# Where “and” joins values, the source holds several entries; their conditions need not be identical. Identical values can stand only once. Inconclusive results, whose numbers are uncertain, are shown with a selection of clear calls. For some assays here: A potency beside an inconclusive call is a rough fit, not a confirmed value. Calls of active or inactive are those of the source. Unless noted, calls come from the whole dose curve; as a rule, active = well fitted curve in the direction sought with a large enough effect; inconclusive = small, poorly fitted or top-dose-only effect, or another doubt; inactive = no such curve, though single readings can be large; an effect the other way counts as inactive or inconclusive.
# How the values were obtained:
# [1] = system: Zika virus NS2B-NS3 protease (linked construct); test: Confirmatory screen NINDS AMC qHTS for Zika virus inhibitors (AID 1347152); note: potency is the fitted concentration of half-maximal effect; nearly all actives have a fitted effect of over 70% in size
# In short: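 Purified NS2B-NS3 protease with NS2B hydrophilic domain linked to NS3 protease domain by flexible linker, 1 nM final in 10 mM Tris-HCl pH 8.0, 0.01% Tween 20. Compounds preincubated 15 min, room temperature; Bz-Nle-KRR-AMC 10 microM (Km 18.3 µM); 15-min fluorescence change, 4-parameter Hill fit.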
# [2] = system: Zika virus NS2B-NS3 protease (unlinked complex); test: Confirmatory screen GU AMC qHTS for Zika virus inhibitors (AID 1347153); note: potency is the fitted concentration of half-maximal effect; nearly all actives have a fitted effect of over 70% in size
# In short: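 Unlinked enzyme 25 nM, Tris pH 8.0/0.01% Tween 20; cpd 15 min RT, dark; + AMC substrate 10 µM (Km 18.3 µM); 340/450 nm read at t0 and 15 min; % inhibition → 4-param fit.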
# [3] = ZIKV-mCherry secondary qHTS for Zika virus inhibitors (AID 1347158); note: top concentration of the series differs between compounds
# In short: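 Vero cells, 5,000/well, plated overnight at 37 °C, then compound added and infected with recombinant ZIKV-mCherry at MOI 1 for 48-72 h. PFA-fixed, Hoechst nuclear stain, high-content imaging; cells with mCherry intensity above 450 RFU scored infected, reported as percent infection.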
# [4] = system: Zika virus NS2B-NS3 protease (unlinked complex); test: Primary screen GU Rhodamine qHTS for Zika virus inhibitors: Unlinked NS2B-NS3 protease assay (AID 1347159); conditions: Recombinant ZIKV NS2B-NS3 protease, Rhodamine110 substrate fluorescence; activity change, negative = inhibition: at 107 µM (top of the series); note: potency is the fitted concentration of half-maximal effect; nearly all actives have a fitted effect of over 60% in size
# In short: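 Compounds, tested up to 114 microM, were incubated for 15 minutes with 25 nM unlinked NS2B-NS3 protease at pH 8.0. Cleavage of 1.5 microM Rhodamine110 substrate was then followed by fluorescence for 15 minutes.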
# [5] = system: Zika virus NS2B-NS3 protease (linked construct); test: Primary screen NINDS Rhodamine qHTS for Zika virus inhibitors (AID 1347160); note: potency is the fitted concentration of half-maximal effect; nearly all actives have a fitted effect of over 55% in size
# In short: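 Percent inhibition, normalized to uninhibited and enzyme-free controls, is fitted to a 4-parameter Hill equation. Fluorescence change comes from a 15-min cleavage of 1.5 microM bis-peptide Rhodamine110 substrate by 25 nM linked NS2B-NS3 at room temperature.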
# [6] = system: Zika virus NS2B-NS3 protease (linked); test: 384 well plate NINDS AMC confirmatory qHTS for Zika virus inhibitors (AID 1347163); note: potency is the fitted concentration of half-maximal effect; nearly all actives have a fitted effect of over 50% in size
# In short: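 Linked protease 5/30/60 nM final; cpds up to 1 mM final, ~15 min preinc. Substrate Ac-VKTGKR-AMC 30 microM final. RT, dark, 25 min; FI ex 355/em 460; normalized to no-enzyme/no-inhibitor ctrls.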
# [7] = HepG2 cells viability qHTS for Zika virus inhibitors (AID 1347168)
# In short: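 Compounds were tested in concentration series on cells grown in DMEM containing 4% FBS. After 24 to 48 hours, cellular ATP was measured by luminescence with CellTiter Glo.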
# [8] = Tertiary RLuc qRT-PCR qHTS assay for Zika virus inhibitors (AID 1347169); note: top concentration of the series differs between compounds; nearly all actives have a fitted effect of over 55% in size
# In short: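 Vero cells (1,000 per well) plated overnight at 37 degrees C, treated with compound in DMSO, then infected with recombinant ZIKV-RLuc (Cambodian) at MOI 1-2 for 48-72 hrs. Live-cell Renilla luciferase substrate added; luminescence read after 1-1.5 hrs.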
# [9] = Primary qHTS for inhibitors of nuclear receptor binding SET domain protein 2 (NSD2) in an isogenic RCH-ACV NSD2 p.E1099K mutant (9B) (AID 1645876); conditions: activity change, negative = viability loss: at 44.9 µM (top of the series) unless noted; note: nearly all actives have a fitted effect of over 70% in size; note: potency is the fitted concentration of half-maximal effect
# [10] = Primary fluorescence-based thiol-reactive (MSTI) qHTS assay for identification of artifact compounds. (AID 1845221);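 note: potency is the fitted concentration of half-maximal effect; thiol-reactive compounds lower the probe fluorescence signal; nearly all actives have a fitted effect of over 65% in size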
# In short: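 Compounds were incubated 1 h at room temperature in the dark with the MSTI probe (4 uM) in PBS pH 7.4, 2% DMSO. Signals were normalized between Acetyl-MSTI and MSTI.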
# Es-2 = test: Primary qHTS to identify gynecologic anti-cancer compounds using libraries of approved drugs and bioactive compounds (AID 1345084); conditions: Gynecologic cancer cell panel viability, ATPlite luminescence, 48 h; series mostly up to 57.5 µM; note: nearly all actives have a fitted effect of over 55% in size; note: potency is the fitted concentration of half-maximal effect
# In short: (§1)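 Luminescence from the ATPlite ATP-monitoring reagent indicates viable cell number; lower signal means cytotoxicity. Cells received compound 16 h after seeding and were exposed for 48 h across five concentrations.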
# [11] = P-glycoprotein substrates identified in KB-8-5-11 adenocarcinoma cell line, qHTS therapeutic library screen (AID 1346987); conditions: activity change, negative = cytotoxicity: at 44.5 µM (top of the series); note: nearly all actives have a fitted effect of over 65% in size
# In short: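 KB-8-5-11: colchicine-selected sub-line of KB-3-1 over-expressing P-gp; assay medium lacked colchicine. 72 h drug exposure at 37 degree C, CellTiter-Glo.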
# [12] = biological target: Cytochrome P450 2D6 (Homo sapiens) (UniProt P10635); test: Cytochrome P450 family 2 subfamily D member 6 (CYP2D6) small molecule antagonists: luciferase biochemical (cell-free) qHTS assay (AID 1645840; active = well fitted curve in the direction sought with a large enough effect in the repeat runs; inconclusive = weak or mixed curves; inactive = no such curve, though single readings can be large; an effect the other way counts as inactive or inconclusive)
# In short: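 P450-Glo luminescent screen: recombinant CYP2D6 enzyme–proluciferin substrate mix preincubated with compound 10 min at room temperature, then NADPH regeneration added for 1 h at room temperature. Detection reagent added for 20 min; luciferin light read as relative luminescence units.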
# [13] = biological target: Glutathione peroxidase 1 (Homo sapiens) (UniProt P07203); test: Primary qHTS Assay for Inhibitors of Recombinant Selenoprotein Glutathione Peroxidase 1 (GPX1) (AID 1845191); note: potency is the fitted concentration of half-maximal effect; nearly all actives have a fitted effect of over 65% in size
# In short: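 10 nM GPX1 + cpd, 30 min RT; start w/ 1 mM GSH, 0.5 mM cumene hydroperoxide, 0.5 mM NADPH, 100 nM GR, 0.01% BSA; buffer 50 mM Tris-HCl pH 7.5, 2 mM EDTA, 150 mM NaCl; Fl 340/450, 0 & 15 min.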
# [14] = biological target: Phospholipid hydroperoxide glutathione peroxidase GPX4 (Homo sapiens) (UniProt P36969); test: Primary qHTS Assay for Inhibitors of Recombinant Selenoprotein Glutathione Peroxidase 4 (GPX4) (AID 1845192); conditions: activity change, negative = inhibition: at 50 µM (top of the series) unless noted; note: potency is the fitted concentration of half-maximal effect; nearly all actives have a fitted effect of over 65% in size
# In short: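 NADPH consumption, followed by fluorescence at 340/450 nm between 0 and 15 min, reports GPX4 activity via coupled glutathione reductase (100 nM). Enzyme 200 nM was pre-exposed to compound 30 min; 0.5 mM cumene hydroperoxide and 1 mM GSH served as substrates.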
# [15] = biological target: Luciferin 4-monooxygenase (Photinus pyralis) (UniProt P08659); test: Primary firefly luciferase (FLuc) qHTS assay for identification of artifact compounds. (AID 1845220); note: potency is the fitted concentration of half-maximal effect; nearly all actives have a fitted effect of over 60% in size
# In short: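 FLuc 10 nM; luciferin 10 uM; ATP 10 uM; Tris-acetate pH 7.6, Mg-acetate 10 mM; 15 min RT preincubation; 5 min reaction; luminescence.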
# [16] = system: Nanoluciferase (engineered Oplophorus gracilirostris luciferase); test: Primary Nanoluciferase (NLuc) qHTS assay for identification of artifact compounds. (AID 1845222);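 note: NLuc secreted into diluted conditioned medium of S16 cells; potency is the fitted concentration of half-maximal effect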
# In short: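 NLuc from S16 cell medium (1:55) plus test compounds, 15 min, room temperature. Luminescence after Nano-Glo (1:100) addition, 5 min.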
# PA-1 = test: Primary qHTS to identify gynecologic anti-cancer compounds using libraries of approved drugs and bioactive compounds (AID 1345084); conditions: Gynecologic cancer cell panel viability, ATPlite luminescence, 48 h; series mostly up to 57.5 µM; note: nearly all actives have a fitted effect of over 55% in size; note: potency is the fitted concentration of half-maximal effect
# In short: as §1
# SKOV3 = test: as above; conditions: Gynecologic cancer cell panel viability, ATPlite luminescence, 48 h; series mostly up to 57.5 µM
# In short: as §1
# Tov-21-G = test: as above; conditions: Gynecologic cancer cell panel viability, ATPlite luminescence, 48 h; series mostly up to 57.5 µM
# In short: as §1
# [17] = Primary qHTS for inhibitors of nuclear receptor binding SET domain protein 2 (NSD2) in an RCH-ACV wild type WT cells (2C) (AID 1645877); conditions: activity change, negative = cell killing: at 44.9 µM (top of the series) unless noted; note: nearly all actives have a fitted effect of over 70% in size; note: potency is the fitted concentration of half-maximal effect
# [18] = qHTS of pediatric cancer cell lines to identify multiple opportunities for drug repurposing: Primary screen for SK-N-MC cells (AID 1347093); conditions: SK-N-MC viability, CellTiter-Glo luminescence, 48 h; activity change, negative = cytotoxic: at 46 µM (top of the series); note: potency is the fitted concentration of half-maximal effect
# In short: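 Metabolically active cells were quantified by ATP-dependent luminescence (CellTiter-Glo, 15 min at room temperature) following 48 h treatment. Cells had been plated at 500-1,000 per well and settled for 5 h beforehand.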
# [19] = Primary qHTS for small molecule stabilizers of the endoplasmic reticulum resident proteome: Secreted ER Calcium Modulated Protein (SERCaMP) assay (AID 1508630); conditions: SH-SY5Y GLuc-SERCaMP (Gaussia luciferase released on ER calcium loss) secretion, thapsigargin, luminescence; activity change, negative = inhibition: at 38.4 µM (top of the series) unless noted; note: potency is the fitted concentration of half-maximal effect
# In short: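 GLuc-SERCaMP-expressing SH-SY5Y cells, pretreated 16 h with compound, are challenged with thapsigargin to empty ER calcium stores; after 4 h, coelenterazine is added directly to the medium and luminescence is imaged.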
# [20] = biological target: N-terminal Xaa-Pro-Lys N-methyltransferase 1 (Homo sapiens) (UniProt Q9BV86); test: Confirmatory qHTS for Inhibitors of N-terminal methyltransferase 1 (NTMT1): MTaseGlo Assay (AID 1645874)
# In short: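 Compounds are incubated with 125 nM NTMT1 and 100 uM SAM for 15 min before the SPKRIA peptide (1 uM) starts a 30 min room-temperature methylation. SAH is measured by coupled luciferase luminescence and curves fitted to a Hill equation.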
# Tags give direction and shape of the fitted curve.
# UniProt P36969, sequence (P36969 whole entry, looked up): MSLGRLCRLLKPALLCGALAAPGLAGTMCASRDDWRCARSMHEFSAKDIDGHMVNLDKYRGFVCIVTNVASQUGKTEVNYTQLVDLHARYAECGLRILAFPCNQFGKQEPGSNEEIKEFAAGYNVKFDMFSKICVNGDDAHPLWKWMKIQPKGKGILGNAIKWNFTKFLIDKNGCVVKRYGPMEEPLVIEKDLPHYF
# UniProt P07203, sequence (P07203 whole entry, looked up): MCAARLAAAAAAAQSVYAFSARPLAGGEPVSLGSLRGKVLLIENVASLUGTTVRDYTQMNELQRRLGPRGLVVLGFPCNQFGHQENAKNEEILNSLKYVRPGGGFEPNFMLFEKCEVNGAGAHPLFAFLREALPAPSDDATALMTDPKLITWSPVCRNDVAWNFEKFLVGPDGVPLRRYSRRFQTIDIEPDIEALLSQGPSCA
# UniProt Q9BV86, sequence (Q9BV86 whole entry, looked up): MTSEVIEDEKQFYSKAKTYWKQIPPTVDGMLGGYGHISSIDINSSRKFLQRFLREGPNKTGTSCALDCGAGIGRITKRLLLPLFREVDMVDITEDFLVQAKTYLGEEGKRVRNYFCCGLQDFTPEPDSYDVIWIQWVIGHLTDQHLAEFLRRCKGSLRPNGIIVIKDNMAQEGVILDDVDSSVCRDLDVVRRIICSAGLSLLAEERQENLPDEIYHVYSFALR
# UniProt P10635, sequence (P10635 whole entry, looked up): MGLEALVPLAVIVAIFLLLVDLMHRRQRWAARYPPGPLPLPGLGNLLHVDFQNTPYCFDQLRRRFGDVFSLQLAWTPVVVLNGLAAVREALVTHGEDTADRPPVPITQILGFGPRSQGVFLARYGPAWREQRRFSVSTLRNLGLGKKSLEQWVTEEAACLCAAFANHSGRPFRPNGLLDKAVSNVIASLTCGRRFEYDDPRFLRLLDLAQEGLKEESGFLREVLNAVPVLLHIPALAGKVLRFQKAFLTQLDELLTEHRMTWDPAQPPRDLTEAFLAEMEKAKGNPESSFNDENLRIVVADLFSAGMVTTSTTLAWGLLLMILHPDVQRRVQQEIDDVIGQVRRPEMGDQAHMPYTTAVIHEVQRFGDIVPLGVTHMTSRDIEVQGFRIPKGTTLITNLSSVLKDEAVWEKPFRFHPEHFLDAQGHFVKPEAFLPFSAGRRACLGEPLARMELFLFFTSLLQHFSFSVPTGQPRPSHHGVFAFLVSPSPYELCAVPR
smiles,measurement,setting,value
CC(C)C1=CCC(C)(O)C(OC2OC(CO)C(O)C(O)C2O)C1 (stereo not given),Potency,[1],"inconclusive: 30.6 µM [inhibitor, partial curve]"
same,Potency,[2],"inconclusive: 6.85 µM [inhibitor, full curve]"
same,Potency,[3],inactive
same,Potency,[4],active: 22.4 µM
same,Potency,[5],active: 10 µM
same,Potency,[6],"inconclusive: 10 µM [inhibitor, full curve]"
same,Potency,[7],inactive
same,Potency,[8],inactive
same,Potency,[9],inactive
same,Potency,[10],active: 2.33 µM
same,Potency,Es-2,inactive
O=C(O)C[C@@H](NC(=O)c1cc(-c2ccc(-c3ccncc3)cc2)cs1)c1ccccc1,Potency,[11],inactive
same,Potency,[4],active: 15.8 µM
same,Potency,[5],active: 20 µM
same,Potency,[12],"inconclusive: 37.9 µM [inhibitor, single point]"
same,Potency,[9],inactive
same,Potency,[13],"inconclusive: 25.5 µM [inhibitor, single point]"
same,Potency,[14],"inconclusive: 25.5 µM [inhibitor, single point]"
same,Potency,[15],active: 6.75 µM
same,Potency,[16],"inconclusive: 23.9 µM [inhibitor, single point]"
same,Potency,Es-2,"inconclusive: 22.4 µM [cytotoxic, partial curve, poor fit]"
same,Potency,PA-1,inactive
same,Potency,SKOV3,inactive
same,Potency,Tov-21-G,"inconclusive: 31.6 µM [cytotoxic, single point]"
C=C1C(=O)O[C@@H]2C[C@]3(C)[C@@H](CCC(C)=O)[C@@H]3C[C@H]12,Potency,[9],"inconclusive: 32.5 µM [inhibitor, single point]"
same,Potency,[17],"inconclusive: 23 µM [inhibitor, partial curve, poor fit]"
same,Potency,Es-2,inactive
same,Potency,PA-1,inactive
same,Potency,SKOV3,inactive
CN1CCCN=C1/C=C/c1cccs1,Potency,[18],"inconclusive: 0.0047 µM [cytotoxic, full curve, poor fit]"
same,Potency,[19],"inconclusive: 31.6 µM [inhibitor, single point]"
same,Potency,[20],inactive
same,Potency,[17],"inactive and inconclusive: 23.5 µM [inhibitor, partial curve, poor fit]"
same,Potency,Es-2,inactive
same,Potency,PA-1,inactive
